Measured values published in PubChem BioAssay AID1671194 (National Center for Advancing Translational Sciences (NCATS), 2021).
Out of some 140,000 compounds screened, about 240 (0.17%) were called active. Inconclusive means that the source gave no clear call. Such entries were picked first, then a sample of the others. Calls come from the whole dose curve; as a rule, active = well fitted inhibition curve with a large enough effect; inconclusive = small, poorly fitted or top-dose-only effect; inactive = no such curve, though single readings can be large or run the other way. A potency beside an inconclusive call is a rough fit, not a confirmed value.

Assay: Primary qHTS assay for inhibitors of alpha-synuclein gene (SNCA) expression; note: nearly all actives have a fitted effect of over 45% in size;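 for activity change, negative = inhibition: plate controls were DMSO cells for no effect and cell-free wells for full effect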
Settings: HEK-293 SNCA-luciferase knock-in, luminescence, 24 h; activity change, negative = inhibition: at 57.2 µM (top of the series) unless noted
Potency is the fitted concentration of half-maximal effect; tags give direction and shape of the fitted curve.

| SMILES | Potency | activity change, negative = inhibition |
| --- | --- | --- |
| COC[C@@H]1CN(Cc2cccc(C#N)c2)C[C@H]1c1ccccn1 | inconclusive: 3.16 µM [inhibitor, partial curve, poor fit] | – |
| COc1cccc(CNC(=O)Cn2nc3n(c2=O)CCCCC3)c1OC | inconclusive: 15.8 µM [inhibitor, partial curve, poor fit] | – |
| COc1cccc(-c2cnc3n[nH]c(-c4ccc5c(c4)OCO5)c3n2)c1 | inconclusive: 50.1 µM [inhibitor, partial curve, poor fit] | – |
| CCCN(C)c1nccnc1OC1CCN(C(=O)Cc2ccccc2OC)C1 (stereo not given) | – | inactive: 139% |
| Cn1ncc2c(C(=O)NCCc3ccc(F)cc3)cc(-c3ccc(Cl)nc3)nc21 | inconclusive: 2.82 µM [inhibitor, full curve, poor fit] | – |
| COc1cc(Cl)c(C)cc1Nc1c2c(nc3ccccc13)CCC2 | inconclusive: 22.4 µM [inhibitor, single point] | – |
| CCc1ccc(NC(=O)C2CCN(S(=O)(=O)c3c(C)noc3/C=C/c3cccs3)CC2)cc1 | inconclusive: 0.631 µM [inhibitor, full curve, poor fit] | – |
| COc1ccc(S(=O)(=O)N(CCc2ccccc2)CC(=O)Nc2cc(C)ccc2C)cc1 | inconclusive: 39.8 µM [inhibitor, single point] | – |
| CC(=O)N1CCCC(c2nc(-c3ccc4nc[nH]c4c3)no2)C1 (stereo not given) | inconclusive: 39.8 µM [inhibitor, single point] | – |
| COc1ccc(C(=O)N2CCc3ccc(C(=O)Nc4ccc5c(c4)OCCO5)cc32)cc1 | inconclusive: 39.8 µM [inhibitor, single point] | – |
| Cc1nc(-c2c3n(c(=O)n(CC(=O)Nc4ccc(C)c(Cl)c4)c2=O)CCCC3)no1 | inconclusive: 39.8 µM [inhibitor, partial curve, poor fit] | – |
| Cc1cc(Nc2ccc(C(C)C)cc2)nc(-n2nc(C)cc2C)n1 | inconclusive: 2.51 µM [inhibitor, full curve] | – |
| O=C(Cc1cccc(Cl)c1)NC1CCN(c2nc3ncccc3o2)C1 (stereo not given) | – | inactive: -2.74% [at 87.6 µM] |
| O=C(C1CC=CC1)N1CCC2(CC1)NCCc1c2[nH]c2ccccc12 | inconclusive: 39.8 µM [inhibitor, single point] | – |
| CCOc1ccccc1CN1CCC2(CCN(Cc3ccsc3)CC2)Oc2ccccc21 | – | inactive: -19.6% |
| COc1ccc(OC)c2sc(N(Cc3cccnc3)C(=O)c3ccc(C(C)=O)cc3)nc12 | inconclusive: 7.08 µM [inhibitor, single point] | – |
| CCNc1cc(N2CCC(CCC(=O)NCCc3cccnc3)CC2)ncn1 | inconclusive: 6.31 µM [inhibitor, partial curve, poor fit] | – |
| O=C(O)c1ccc(NCc2nc3c(n2Cc2ccccc2)C(=O)N(Cc2cccc(Cl)c2)CCN3)cc1 | inconclusive: 11.2 µM [inhibitor, partial curve, poor fit] | – |
| O=C(c1ccc2c(c1)N(Cc1ccccc1F)C(=O)c1ccccc1S2=O)N1CCCCC1 (stereo not given) | inconclusive: 1.58 µM [inhibitor, single point] | – |
| O=C1NCCCCCN(Cc2cn[nH]c2-c2ccccc2)[C@H]2CCC[C@@H]12 | inconclusive: 10 µM [inhibitor, partial curve, poor fit] | – |

| SMILES | Potency | activity change, negative = inhibition |
| --- | --- | --- |
| CCC(O)CNC(=O)c1cn2cc(-c3ccc(F)cc3)n(CC=C(C)C)c(=O)c2n1 (stereo not given) | inconclusive: 7.94 µM [inhibitor, single point] | – |
| COC(=O)NC(C)c1nc(-c2cccnn2)no1 (stereo not given) | inconclusive: 25.1 µM [inhibitor, single point] | – |
| CN1CCCCCCN(C(=O)C2(c3ccccc3)CC2)[C@H]2CCC[C@H]2C1=O | inconclusive: 31.6 µM [inhibitor, single point] | – |
| CC(C)(C)C(=O)N1CCCC(C(=O)N2CCC3(CC2)CC(=O)Nc2ccccc2O3)C1 (stereo not given) | – | inactive: -21.5% |
| Cc1ccc(S(=O)(=O)NCC(c2ccco2)N2CCN(c3ccccc3F)CC2)cc1 (stereo not given) | inconclusive: 39.8 µM [inhibitor, single point] | – |
| COc1cccc(C(=O)Nc2cccc(-c3nnc4n3CCCC4)c2)c1 | inconclusive: 25.1 µM [inhibitor, single point] | – |
| CCCCN(CC)CCCNC(=O)C1CCN(c2nc3ccc(CC)cc3s2)CC1 | inconclusive: 39.8 µM [inhibitor, single point] | – |
| Fc1ccc(CNC[C@H]2Cn3c(-c4ccc(Cl)cc4)cnc3CO2)cc1 | inconclusive: 56.2 µM [inhibitor, single point] | – |
| COc1ccc2[nH]c3c(c2c1)CCNC31CCN(C(=O)c2cccn2C)CC1 | active: 25.1 µM | – |
| CCOc1cc(=O)n2c(c1C(=O)NC1CCCCCC1)CCCC2 | inconclusive: 8.91 µM [inhibitor, single point] | – |
| Cc1cnc(C(=O)N2CCOc3ccc(CN4CCCCCC4)cc3C2)cn1 | – | inactive: 25.7% |
| Nc1ncccc1CN1CCc2ncc(C(=O)NCc3ccccc3)n2CC1 | – | inactive: 20.8% [at 87.6 µM] |
| COc1cccc(NC(=O)Cn2nc3c4ccccc4n(Cc4cccc(F)c4)cc-3c2=O)c1 | inconclusive: 6.31 µM [inhibitor, single point] | – |
| O=C(O)CSc1nnc(-c2ccc(O)cc2)o1 | inconclusive: 25.1 µM [inhibitor, partial curve, poor fit] | – |
| CCCCOc1ccc(C(=O)N2CCC(Cc3nc(-c4ccccc4)no3)CC2)cc1 | – | inactive: -26.9% |
| COc1ccc(CN2C[C@@H]3C(C(=O)Nc4ccccc4)=NO[C@@H]3C2)cc1OC | inconclusive: 56.2 µM [inhibitor, single point] | – |
| O=C(Nc1cccc(C(F)(F)F)c1)c1cnc2c(c1)N(C(=O)Cc1cccc(C(F)(F)F)c1)CCC2 | inconclusive: 39.8 µM [inhibitor, single point] | – |
| COCCn1c(Cn2ccc3ccccc32)nnc1C1CC(N)C1 (stereo not given) | inconclusive: 3.98 µM [inhibitor, single point] | – |
| CN(C)C(=O)N1CCN(c2nc3ncccc3o2)CC1 | – | inactive: -4.45% [at 87.6 µM] |
| Cc1cc(-c2ccc(C)c(S(=O)(=O)N3c4ccccc4CC3C)c2)on1 (stereo not given) | inconclusive: 12.6 µM [inhibitor, partial curve, poor fit] | – |
